Consider eleven molecules from the supplement of paper PMC12355420.

Counter-ions that a name gives are not always drawn. The list shows a part of the results. No stated cut-off is given here; in the data, active = 0.5 or less and inactive = the rest. Most values come without repeats; read them as rough.

What all share (settings): 50 µM; 24 h
For assay [1], the system named is HeLa VPS33A reporter cells. The experiment in a line: relative cell viability (CellMask signal) vs DMSO (fraction of DMSO); higher = less cytotoxic.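 Further: primary screen of an FDA-approved drug library in HeLa reporter cells in 96-well format, CellMask signal normalized to DMSO-treated wells set as 1, under 0.5 deemed highly cytotoxic.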
The test system of assay [2] is HeLa VPS33A R498W KI + HA-SDC1-FLAG. Nature of the assay: relative GAG core protein HA-SDC1 amount per cell number vs DMSO (fraction of DMSO); higher = more SDC1 (GAG core protein).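 Further: HA-SDC1 level read out by In-Cell Western staining with an anti-HA antibody against the N-terminal tag, screening FDA-approved library drugs.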
The test system of assay [3] is HeLa VPS33A KO + NLuc-VPS33A R498W. Nature of the assay: relative mutant VPS33A R498W amount (NanoLuc luminescence) vs DMSO (fraction of DMSO); HeLa model of a glycosaminoglycan (GAG) storage disease; KI is knock-in and KO knock-out; SDC1 is syndecan 1; higher = higher mutant VPS33A level.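 Further: screen of an FDA-approved drug library, NanoLuc luminescence read after lysing the treated cells, taken as a measure of mutant VPS33A protein stability.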

Take `COc1ccc2cc3[n+](cc2c1OC)CCc1cc2c(cc1-3)OCO2` [Berberine hydrochloride]: the relative cell viability in assay [1] is 1.07. For the same molecule, the “relative GAG core protein HA-SDC1 amount per cell number” value in assay [2] is inactive: 0.501. Also, the “relative mutant VPS33A R498W amount” value in assay [3] is 0.764.

Molecule `CN(C)CCN(Cc1ccccc1)c1ccccn1` [Tripelennamine HCl] showed a relative cell viability in assay [1] of 1.19. The “relative GAG core protein HA-SDC1 amount per cell number” value in assay [2] was inactive: 1.75. In assay [3], the “relative mutant VPS33A R498W amount” value was found to be 0.957.

`CCCN[C@H]1CCc2nc(N)sc2C1` [Pramipexole 2HCl Monohydrate] yielded a relative cell viability in assay [1] of 1.15. In addition, the “relative GAG core protein HA-SDC1 amount per cell number” value in assay [2] was inactive: 1.29. Besides, the “relative mutant VPS33A R498W amount” value in assay [3] came out at 1.53.

For the molecule `CNC[C@@H](O)c1ccc(O)c(O)c1` [L-Adrenaline], the relative cell viability in assay [1] was found to be 0.762. Besides, the “relative GAG core protein HA-SDC1 amount per cell number” value in assay [2] is inactive: 0.83. In addition, the “relative mutant VPS33A R498W amount” value in assay [3] worked out at 1.36.

`COc1c2ccoc2cc2oc(=O)ccc12` [5-Methoxypsoralen] gave a relative cell viability in assay [1] of 1.02. Further, in assay [2], the “relative GAG core protein HA-SDC1 amount per cell number” value is inactive: 0.773. In assay [3], the “relative mutant VPS33A R498W amount” value came to 0.885.

For `O=C(O)[C@H](CC(=O)N1C[C@H]2CCCC[C@H]2C1)Cc1ccccc1` [Mitiglinide Calcium], the relative cell viability in assay [1] worked out at 1.04. The “relative GAG core protein HA-SDC1 amount per cell number” value in assay [2] is inactive: 0.745. In addition, the “relative mutant VPS33A R498W amount” value in assay [3] turned out to be 1.52.

As for `CC[C@H](C)C(=O)O[C@H]1C[C@H](O)C=C2C=C[C@H](C)[C@H](CC[C@@H](O)C[C@@H](O)CC(=O)O)[C@H]21` [Pravastatin sodium], the relative cell viability in assay [1] was 1.05. In addition, the “relative GAG core protein HA-SDC1 amount per cell number” value in assay [2] is inactive: 1.15. Further, the “relative mutant VPS33A R498W amount” value in assay [3] was found to be 1.24.

`O=S(=O)(O)CCSSCCS(=O)(=O)O` [Dimesna] returned a relative cell viability in assay [1] of 0.991. Moreover, the “relative GAG core protein HA-SDC1 amount per cell number” value in assay [2] was inactive: 1.26. Also, the “relative mutant VPS33A R498W amount” value in assay [3] came to 1.48.

On to `CCCc1ncc(C[n+]2ccccc2C)c(N)n1` [Amprolium HCl], for which, in assay [1], the relative cell viability came to 1.09. Besides, the “relative GAG core protein HA-SDC1 amount per cell number” value in assay [2] was inactive: 1.61. Moreover, the “relative mutant VPS33A R498W amount” value in assay [3] was 1.23.

The molecule `O=c1c(O)c(-c2ccc(O)cc2)oc2cc(O)cc(O)c12` [Kaempferol] showed a relative cell viability in assay [1] of 0.935. Moreover, the “relative GAG core protein HA-SDC1 amount per cell number” value in assay [2] is inactive: 0.652. Moreover, the “relative mutant VPS33A R498W amount” value in assay [3] was determined as 0.184.

The molecule `CC(C)(C)NCC(O)COc1cccc2c1CCC(=O)N2` (stereo not drawn) [Carteolol HCl] gave a relative cell viability in assay [1] of 1.09. In addition, the “relative GAG core protein HA-SDC1 amount per cell number” value in assay [2] was inactive: 0.978. Besides, the “relative mutant VPS33A R498W amount” value in assay [3] worked out at 1.25.
